Experimental data from PubChem BioAssay AID488969 (Vanderbilt High Throughput Screening Facility, 2010).
Over roughly 110,000 compounds, “z-score” has its median near -0.1; the highest 2% begin near 2. This is one part of the list.

Molecular target: Metabotropic glutamate receptor 8 (Rattus norvegicus) (UniProt P70579)
Assay: mGluR8 Gi/Go-coupled signaling modulation – cell-based, rat, thallium flux, HTS, primary screen (AID 488969)
Conditions: HEK293 rat mGluR8, GIRK (G protein-gated inwardly rectifying potassium channel) thallium flux, FluoZin2; at 10 µM; stronger effect = higher value; submaximal glutamate (EC20) added with thallium

Sequence of UniProt P70579 (P70579 whole entry, looked up): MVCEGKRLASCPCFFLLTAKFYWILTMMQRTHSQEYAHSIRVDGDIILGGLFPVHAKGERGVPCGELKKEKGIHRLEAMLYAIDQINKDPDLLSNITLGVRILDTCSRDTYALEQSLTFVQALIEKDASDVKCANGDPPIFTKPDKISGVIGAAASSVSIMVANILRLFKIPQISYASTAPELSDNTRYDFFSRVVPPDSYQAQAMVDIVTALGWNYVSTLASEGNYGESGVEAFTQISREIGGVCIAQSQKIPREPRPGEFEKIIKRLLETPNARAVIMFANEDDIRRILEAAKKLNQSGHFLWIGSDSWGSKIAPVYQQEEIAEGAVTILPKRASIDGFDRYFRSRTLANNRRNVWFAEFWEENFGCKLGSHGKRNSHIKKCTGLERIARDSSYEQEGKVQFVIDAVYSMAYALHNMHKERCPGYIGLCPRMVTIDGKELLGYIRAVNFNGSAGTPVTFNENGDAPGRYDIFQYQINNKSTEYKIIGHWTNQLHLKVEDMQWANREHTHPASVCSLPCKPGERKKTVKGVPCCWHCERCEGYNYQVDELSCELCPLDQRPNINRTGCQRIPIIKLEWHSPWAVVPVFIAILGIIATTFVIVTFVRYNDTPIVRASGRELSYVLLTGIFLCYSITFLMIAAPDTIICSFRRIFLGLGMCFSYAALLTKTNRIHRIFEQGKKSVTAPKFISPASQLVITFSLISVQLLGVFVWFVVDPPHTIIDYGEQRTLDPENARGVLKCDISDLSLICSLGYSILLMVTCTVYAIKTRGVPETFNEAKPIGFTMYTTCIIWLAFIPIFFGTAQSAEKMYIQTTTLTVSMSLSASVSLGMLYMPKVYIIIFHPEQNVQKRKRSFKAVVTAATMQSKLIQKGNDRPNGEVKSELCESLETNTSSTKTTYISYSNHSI

Compound	z-score
CCOC(=O)N1CCN(c2c(N3CCN(c4cc(C)ccc4C)CC3)c(=O)c2=O)CC1	0.0873
CCOc1ccccc1NC(=O)C(=O)/C=C(\O)c1cc(OC)ccc1OC	1.35
Cc1cc(=O)[nH]c(SCCOc2ccc(OC(C)C)cc2)n1	-0.838
O=C(CN1C(=O)c2ccccc2C1=O)Nc1ccccc1C(=O)NC1CCCCC1	-0.445
CC(CNc1ccc([N+](=O)[O-])c2cccnc12)Nc1c([N+](=O)[O-])cc(C(F)(F)F)cc1[N+](=O)[O-] (stereo not given)	-0.0979
COc1ccc(NC(=O)COC(=O)/C=C/c2ccc(OC)c(S(=O)(=O)N3CCOCC3)c2)cc1	-0.355
CC(=O)OC1COC(n2ccc3cc([N+](=O)[O-])ccc32)C(OC(C)=O)C1OC(C)=O (stereo not given)	0.0746
CC(C)NC(=S)N(C)C1(c2ccccc2Cl)CCCCC1=O (stereo not given)	-0.22
COc1ccc(C2=NCC(CSc3nccc(=O)[nH]3)S2)cc1 (stereo not given)	-1.19
COC(=O)C1=C(C)N(CCc2ccccc2)C(=O)/C1=C\c1ccco1	-0.225
CCCC(=O)Nc1sc(C)c(-c2ccc(C(C)CC)cc2)c1C#N (stereo not given)	0.288
Nc1c(N=Nc2cccc(Cl)c2)c(=O)[nH]n1-c1ccccc1	-0.199
CC1CC(=O)NN=C1c1ccc(N)c([N+](=O)[O-])c1 (stereo not given)	0.0922
Nc1cc(N)cc(-c2nc3ccccc3[nH]2)c1	0.818
CCOc1cccc(-c2nnc(SCC(=O)Nc3ccc(OC)c(OC)c3)n2N)c1	0.582
COc1ccc(C2CN=NC23CCCc2ccccc2C3=O)cc1 (stereo not given)	-0.251
Cc1ccccc1NC(=S)NC1CCN(Cc2ccccc2)CC1	0.33
CCOC(=O)CSc1nc(C(C)C)nc2ccccc12	0.0609
COc1ccc(C(=O)c2cc3ccc(O)cc3oc2=O)cc1	0.696
COC(=O)[C@@H](NC(=O)NC1CCN(Cc2ccccc2)CC1)C(C)C	-0.196
COc1ccc(C(C(=O)NC(C)(C)C)N(C(=O)CNC(=O)c2cccs2)c2ccc(C(C)C)cc2)cc1OC (stereo not given)	-0.16
O=C(NCc1cccnc1)c1csc2c1CCCC2	0.0876
CCOc1ccccc1NC(=O)N1CCC(C(=O)c2ccc(F)cc2)CC1	-0.436
O=C(OCc1nc2ccc(Cl)cc2n1CCO)c1ccccc1C(=O)c1ccccc1	-0.435

Compound	z-score
Cc1ccccc1-n1c(N)cc(=O)[nH]c1=S	-0.603
COc1cc(/C=N/NC(=O)CCn2c3ccccc3c3ccccc32)ccc1O	-0.393
Oc1ccccc1C1=Nc2ccccc2N=C(c2cccs2)C1	0.0299
Cc1cc(C)cc(NC(=O)CN2CCC(NC(=O)Cc3ccccc3)CC2)c1	-0.23
COc1ccccc1NC(=O)CN(Cc1ccccc1)S(C)(=O)=O	-0.226
Cc1sc2nc3n(c(=O)c2c1C)NC(=O)CC3	-0.373
N#CC1=C(N)SC(N)=C(C#N)C1c1ccc(C(F)(F)F)cc1	0.26
CC(NC(=O)Nc1ccc(F)cc1)C(c1cccs1)N1CCCC1 (stereo not given)	0.497
Cc1nc(-c2c(C(F)(F)F)noc2-c2ccc(O)cc2O)cs1	-0.14
COc1ccc(C2C(C(C)=O)=C(O)C(=O)N2Cc2cccnc2)cc1 (stereo not given)	0.978
COc1ccc(CN2C(=O)c3cccnc3C2Nc2ccc(C)cc2)cc1 (stereo not given)	-0.235
COc1cccc2c(=O)c(C(=O)O)c[nH]c12	-0.0418
Cc1ccccc1CSc1nncn1N	-0.5
CCN(CC)C(=O)CN(c1cc2c(cc1OC)oc1ccccc12)S(=O)(=O)c1ccccc1	0.226
O=C(NCCSCc1ccccc1)c1ccc(Cl)c(S(=O)(=O)N2CCOCC2)c1	-0.536
CCCCC(=O)Nc1ccc(C(=O)N2CCC(C(=O)OCC)CC2)cc1	-0.394
Cc1cccc(-n2c(-c3ccoc3C)n[nH]c2=S)c1	-0.0319
CCNc1nc(NC(C)CC)nc(Oc2ccc(=O)[nH]n2)n1 (stereo not given)	-0.162
CCOC(=O)C1CCCN(S(=O)(=O)c2ccc(OC)cc2)C1 (stereo not given)	0.164
S=C(c1cccs1)N1CCCC1	0.128
CC(C(=O)Nc1cc([N+](=O)[O-])ccc1Cl)N1CCN(c2ccccc2O)CC1 (stereo not given)	-1.94
Cc1ccc(C)c(-n2c(SCC(=O)Nc3nnc(C)s3)nnc2-c2ccoc2C)c1	-0.167
COc1cc(/C=C/C(=O)OCC(=O)NC(=O)NC23CC4CC(CC(C4)C2)C3)ccc1OCC#N	-1.04
CCC(C)c1ccc(NC(=O)C2CCN(c3ccc(C(F)(F)F)cn3)CC2)cc1 (stereo not given)	-0.0918

Compound	z-score
Cn1c(=NC(=O)C2CCN(S(=O)(=O)c3cccs3)CC2)sc2ccccc21	0.924
CCN(CC)c1ccc(C(=O)OCC(=O)Nc2cc3oc4ccccc4c3cc2OC)cc1	-0.23
CC1CCCC(NC(=O)COC(=O)CCC2CCCC2)C1C (stereo not given)	-0.101
CC(C)(C)NC(=S)NCc1ccco1	-0.0799
Cc1cccc(C2NS(=O)(=O)N=C2N)c1 (stereo not given)	0.106
O=C(O)CCC1(C(=O)O)OCCc2ccccc21 (stereo not given)	0.0687
CCOC(=O)c1c(C)[nH]c(C(=O)Cn2c(=O)c3c(ncn3CC)n(Cc3ccccc3)c2=O)c1C	-0.0206
O=C(COc1cccc2ccccc12)N1CCN(c2ccccn2)CC1	0.0163
Cc1ccc(C)c(NC(=O)CSc2nnc(C)c(=O)n2N)c1	-0.19
CCC1(C)Cc2c(c(=O)n(-c3ccccc3)c3ncnc(N)c23)CO1 (stereo not given)	0.727
O=C(COc1ccccc1-c1ccccc1)N/N=C/c1ccc2ccccc2c1	-0.0388
COc1cccc(NC(=O)CCN2C(=O)c3ccccc3S2(=O)=O)c1	-0.282
CCOc1ccc2nc(SCC(=O)Nc3ccc4c(c3)OCO4)sc2c1	-0.00217
Cc1ccc(NC(=S)/C(=C(\[O-])c2ccc(C)c([N+](=O)[O-])c2)[n+]2ccccc2)cc1C	0.0215
O=C(NNC(=S)NCc1ccccc1)c1ccc(OC(F)F)cc1	2.12
COc1ccccc1OCC(=O)Nc1nc(-c2ccc(S(=O)(=O)N3CCOCC3)cc2)cs1	0.0252
COc1ccc(NC(=O)OC(CN2CCCCC2)C(F)(F)F)cc1 (stereo not given)	0.0302
CN(CC(O)COc1c(F)cc(Br)cc1F)C1CCCCC1 (stereo not given)	0.202
CCOc1cc(C(=O)Nc2nnc(C)s2)cc(OCC)c1OCC	1.04
CCC1CCCCN1C(=O)CSc1nnc(CNC(=O)c2ccco2)o1 (stereo not given)	0.0244
COc1ccc(/C=N/N=C2/NC(=O)C(c3ccccc3)(c3ccccc3)S2)cc1	-0.136
CC([NH2+][O-])C(C)(C)NO (stereo not given)	-0.189
